Reference: the supplement of paper PMC12217912
This is one part of the list. Sequences were assembled here from the parent chain. Inactive controls read about 0.05.

B1: TEV protease; numbered along this chain (parent)
chain: MGESLFKGPRDYNPISSSICHLTNESDGHTTSLYGIGFGPFIITNKHLFRRNNGTLVVQSLHGVFKVKDTTTLQQHLVDGRDMIIIRMPKDFPPFPQKLKFREPQREERICLVTTNFQTKSMSSMVSDTSCTFPSGDGIFWKHWIQTKDGQCGSPLVSTRDGFIVGIHSASNFTNTNNYFTSVPKNFMELLTNQEAQQWVSGWRLNADSVLWGGHKVFMVKPEEPFQPVKEATQL

Variants of: B1
Experiment: raw area under fraction-flipped curve 0-4 h after induction (AUC4h, not background-subtracted), DNA-recorder readout of cleavage of the substrate (dimensionless); higher = more cleavage of the substrate by the protease variant
Conditions: temperature: 34 °C; time window: 0-4 h after rhamnose induction
Description: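 In vivo DNA recorder in E. coli TOP10(DE3) ΔrhaA at 34 °C. Each TEVp single-site mutant (parent TEVp 0) is paired with a single-site variant of the 7-mer TEVs (canonical ENLYFQ|S). The substrate sits between flexible linkers in a Bxb1-sfGFP-TEVs-SsrA fusion, so cleavage stabilises Bxb1 and speeds flipping of a recombination array, read by NGS. The value is the raw area under the fraction-flipped curve over 0-4 h after rhamnose induction (AUC4h), with ≥20 reads per time point. It is not background-subtracted; inactive controls average about 0.047.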
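Note: Bxb1 expression induced with 0.2% (w/v) L-rhamnose at OD600 near 0.5, cultures sampled hourly, flipped fraction per protease–substrate barcode pair counted by paired-end Illumina sequencing.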

| Variant | area with substrate ENLCFQS | area with substrate ENLDFQS | area with substrate ENLEFQS | area with substrate ENLFFQS | area with substrate ENLHFQS | area with substrate ENLIFQS | area with substrate ENLKFQS | area with substrate ENLLFQS | area with substrate ENLQFQS | area with substrate ENLGFQS | area with substrate ENLNFQS | area with substrate ENLPFQS | area with substrate ENLRFQS | area with substrate ENLSFQS | area with substrate ENLTFQS | area with substrate ENLVFQS | area with substrate ENLWFQS | area with substrate ENLMFQS |
| --- | --- | --- | --- | --- | --- | --- | --- | --- | --- | --- | --- | --- | --- | --- | --- | --- | --- | --- |
| MGESLFKGPRDYNPISSSICHLTNESDGHTTSLYGIGFGPFIITNKHLFRRNNGTLVVQSLHGVFKVKDTTTLQQHLVDGRDMIIIRMPKDFPPFPQKLKFREPQREERICLVTTNFQTKSMSSMVSDTSCTFPSGDGIFWKHRIQTKDGQCGSPLVSTRDGFIVGIHSASNFTNTNNYFTSVPKNFMELLTNQEAQQWVSGWRLNADSVLWGGHKVFMVKPEEPFQPVKEATQL [W144R] | 0.0835 | 0.06 | 0.061 | 0.0702 | 0.0779 | 0.0622 | 0.0678 | 0.054 | 0.0634 |  |  |  |  |  |  |  |  |  |
| MGESLFKGPRDYNPISSSICHLTNESDGHTTSLYGIGFGPFIITNKHLFRRNNGTLVVQSLHGVFKVKDTTTLQQHLVDGRDMIIIRMPKDFPPFPQKLKFREPQREERICLVTTNFQTKSMSSMVSDTSCTFPSNDGIFWKHWIQTKDGQCGSPLVSTRDGFIVGIHSASNFTNTNNYFTSVPKNFMELLTNQEAQQWVSGWRLNADSVLWGGHKVFMVKPEEPFQPVKEATQL [G136N] | 0.0719 | 0.0586 | 0.065 | 0.102 | 0.0796 |  | 0.0912 | 0.0706 | 0.0603 | 0.0675 | 0.0666 | 0.0597 | 0.081 | 0.0703 | 0.0144 | 0.0533 | 0.0613 |  |
| MGESLFKGPRDYNPISSSICHLTNESDGHTTSLYGIGFGPFIITNKHNFRRNNGTLVVQSLHGVFKVKDTTTLQQHLVDGRDMIIIRMPKDFPPFPQKLKFREPQREERICLVTTNFQTKSMSSMVSDTSCTFPSGDGIFWKHWIQTKDGQCGSPLVSTRDGFIVGIHSASNFTNTNNYFTSVPKNFMELLTNQEAQQWVSGWRLNADSVLWGGHKVFMVKPEEPFQPVKEATQL [L48N] | 0.0621 | 0.061 | 0.0661 | 0.06 | 0.0557 | 0.055 | 0.058 |  |  | 0.0673 | 0.0597 | 0.0549 | 0.0595 | 0.0602 |  | 0.0275 | 0.0539 | 0.07 |
| MGESLFKGPRDYNPISSSICHLTNESDGHTTSLYGIGFGPFIITNKHLFRRNNGTLVVQSLHGVFKVKDTTTLQQHLVDGRDMIIIRMPKDFPPFPQKLKFREPQREERICLVTTNFQTKSMSSMVSDTSCTFPSGDGIFWKHWIQTKDGQCGSPLVSTRDGFIVGIHSASNFTNTNNYFTSVPKNFMELLTNQEAQQWVSGWRLNADSVLWGGHQVFMVKPEEPFQPVKEATQL [K216Q] | 0.059 | 0.0678 |  | 0.0898 | 0.074 |  |  |  |  |  |  |  |  |  |  |  |  |  |
| MGESLFKGPRDYNPISSSICHLTNESDGHTTSLYGIGFGPFIITNKHLFRRNNGTLVVQSLHGVFKVKDTTTLQQHLVDGRDMIIIRMPKDFPPFPQKLKFREPQREERICLVTTNFQTKSMSSMVSDTSCTFPSGDGIFWKHWIQTKDGQCGSPLVSTRDGFIVGIHSASNFTNTNNYFTSVPKNFMELLTNQEAQQWVSGWRLNADSVLWGGHKVFMVKPEEPFQPVKEMTQL [A232M] | 0.0836 |  |  | 0.0542 | 0.0615 |  | 0.105 |  |  |  | 0.0904 | 0.0513 | 0.094 | 0.0636 |  |  | 0.0626 |  |
| MGESLFKGPRDYNPISSSICHLTNESDGHTTSLYGIGFGPFIITNKHLFRRNNGTLVVQSLHGVFKVKDTTTLQQHLVDGRDMIIIRMPKDFPPFPQKLKFREFQREERICLVTTNFQTKSMSSMVSDTSCTFPSGDGIFWKHWIQTKDGQCGSPLVSTRDGFIVGIHSASNFTNTNNYFTSVPKNFMELLTNQEAQQWVSGWRLNADSVLWGGHKVFMVKPEEPFQPVKEATQL [P104F] | 0.0466 | 0.0636 | 0.0399 | 0.063 | 0.0584 |  |  |  |  |  | 0.0576 | 0.0723 |  |  | 0.0566 |  |  |  |
| MGESLFKGPRDYNPISSSICHLTNESDGHTTSLYGIGFGPFIITNKHLFRRNNGTLVVQSLHGVFKVKDTTTLQQHLVDGRDMIIIRMPKDFPPFPQKLKFREPQREERICLVTTNFQTKSMSSMVSDTSCTFPSGDGIFWKHWIQTKDGQCGSPLVSTRDGFIVGIHSASNFTNTNNYFTSVPKNFMELLTNQEAQQWVSGWRLNADSVLWGGHKVFMVKPEEPCQPVKEATQL [F226C] | 0.07 | 0.0705 | 0.0632 | 0.0904 | 0.0946 | 0.0942 | 0.0835 | 0.0766 |  | 0.0583 | 0.059 | 0.0544 | 0.0476 | 0.0601 |  | 0.0727 | 0.0496 |  |
| MGESLFKGPRDYNPISSSICHLTNESDGHTTSLYGIGFGPFIITNKHLFRRNNGTQVVQSLHGVFKVKDTTTLQQHLVDGRDMIIIRMPKDFPPFPQKLKFREPQREERICLVTTNFQTKSMSSMVSDTSCTFPSGDGIFWKHWIQTKDGQCGSPLVSTRDGFIVGIHSASNFTNTNNYFTSVPKNFMELLTNQEAQQWVSGWRLNADSVLWGGHKVFMVKPEEPFQPVKEATQL [L56Q] | 0.0383 | 0.0552 | 0.048 |  | 0.0494 | 0.0205 | 0.0498 | 0.0576 | 0.0761 |  | 0.0196 | 0.0316 | 0.0659 | 0.0529 |  |  |  |  |
| MGESLFKGPRDYNPISSSICHLTNESDGHTTSLYGIGFGPFIITNKHLFRRNNGTLVVQSLHGVFKVKDTTTLQQHLVDGRDMIIIRMPKDFPPFPQKLKFREPQREERICLVTTNFQTKSMSSMVSDTSCTFPSGDGIFWKHWIQTKDGQCGSPLVSTRDGFIVGIHSASNFTNTNNYFTSVPKNFMELLGNQEAQQWVSGWRLNADSVLWGGHKVFMVKPEEPFQPVKEATQL [T192G] | 0.0696 |  | 0.0888 | 0.0779 | 0.0596 |  | 0.08 | 0.0722 |  |  | 0.075 |  |  |  | 0.0697 | 0.0625 |  | 0.0734 |
| MGESLFKGPRDYNPISSSICHLTNESDGHTTSLYGIGFGPFIITNKHLFRRNNGTLVVQSLHGVFKVKDTTTLQQHLVDGRDMIIIRMPKDFPPFPQKLKFREPQREERICWVTTNFQTKSMSSMVSDTSCTFPSGDGIFWKHWIQTKDGQCGSPLVSTRDGFIVGIHSASNFTNTNNYFTSVPKNFMELLTNQEAQQWVSGWRLNADSVLWGGHKVFMVKPEEPFQPVKEATQL [L112W] | 0.0552 | 0.0537 |  | 0.0994 | 0.062 |  |  |  | 0.0498 | 0.0526 | 0.0569 | 0.0417 | 0.0492 | 0.0673 | 0.0631 | 0.061 | 0.0514 | 0.0479 |
